Source: PubChem BioAssay AID624417 (National Center for Advancing Translational Sciences (NCATS), 2012)
Screen size: about 410,000 compounds; about 6,400 (1.6%) were called active. This list was built around the results that the source calls inconclusive (neither active nor inactive); the mix of calls is not that of the screen. Calls follow the shape of the dose curve; as a rule, active = well fitted inhibition curve with a large enough effect; inconclusive = small, poorly fitted or top-dose-only effect; inactive = no such curve, though single readings can be large or run the other way. Where the call is inconclusive, the potency comes from a doubtful curve fit.

Target: Glucagon-like peptide 1 receptor (Homo sapiens) (UniProt P43220)
Sequence of UniProt P43220 (P43220 whole entry, looked up): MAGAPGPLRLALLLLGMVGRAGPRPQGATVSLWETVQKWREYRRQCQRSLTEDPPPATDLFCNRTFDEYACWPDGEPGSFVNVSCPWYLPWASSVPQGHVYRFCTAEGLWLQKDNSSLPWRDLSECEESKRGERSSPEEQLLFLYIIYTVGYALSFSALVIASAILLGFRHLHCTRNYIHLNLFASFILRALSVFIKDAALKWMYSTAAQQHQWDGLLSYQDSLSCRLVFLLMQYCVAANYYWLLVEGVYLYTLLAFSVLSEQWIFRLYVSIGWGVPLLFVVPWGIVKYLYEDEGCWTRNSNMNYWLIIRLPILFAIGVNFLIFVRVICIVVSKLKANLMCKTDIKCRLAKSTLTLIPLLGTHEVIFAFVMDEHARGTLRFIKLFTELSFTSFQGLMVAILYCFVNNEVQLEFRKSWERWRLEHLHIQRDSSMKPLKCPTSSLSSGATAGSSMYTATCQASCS
Experiment: qHTS of GLP-1 Receptor Inverse Agonists (Inhibition Mode); also: nearly all actives have a fitted effect of over 55% in size
Settings: HEK293 GLP-1R CRE-luciferase, luminescence, 24 h, GLP-1R form is constitutively active; activity change, negative = inhibition: at 38.3 µM (top of the series) unless noted
In short: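 Luminescence readout: a drop in cAMP-driven luciferase signal flags inverse agonism at a constitutively active GLP-1R stably expressed in HEK293. Compound exposure lasted 24 hr at 37 deg C, 5% CO2.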
% is scaled to controls: 0 for no effect and ±100 for the full control effect; potency is read from the fitted curve at half-maximal effect; tags tell the direction and shape of the fitted curve.

Potency, inconclusive:
COc1ccc(C(CNC(=O)C(C)c2ccc3cc(OC)ccc3c2)N(C)C)cc1 (stereo not given) 4.47 µM [inhibitor, partial curve]
CN(C)c1ccc(Nc2nc(-c3cccnc3)cs2)cc1 28.2 µM [inhibitor, single point]
O=C(Nc1ccc2c(c1)OCCO2)c1cccc(Br)c1 11.2 µM [inhibitor, single point]
COc1ccc2[nH]cc(CCNS(=O)(=O)c3ccc(F)cc3)c2c1 28.2 µM [inhibitor, single point]
Cc1cccc(CN2C(=O)c3ccccc3S(=O)(=O)c3ccc(C(=O)NCCC4=CCCCC4)cc32)c1 10 µM [inhibitor, partial curve, poor fit]
COc1ccc(CNC(=O)Nc2nc(C(N)Cc3ccc(F)cc3)cs2)cc1 (stereo not given) 22.4 µM [inhibitor, single point]
COC(=O)c1ccc(Nc2nnc(-c3ccc(C)c(S(=O)(=O)N4CCN(C)CC4)c3)c3ccccc23)cc1 28.2 µM [inhibitor, single point]
N#C/C(=C(/O)COC(=O)CSc1ccc(Cl)cc1)c1nc2ccccc2[nH]1 28.2 µM [inhibitor, single point]
CC1=NN(C(=O)CSCc2ccccc2)C(O)(c2ccc(Cl)cc2)C1 (stereo not given) 8.91 µM [inhibitor, partial curve, poor fit]
c1ccc(CCC2CCCCN2Cc2nc(C3CC3)no2)cc1 (stereo not given) 28.2 µM [inhibitor, single point]
Cc1cccc(C)c1-n1nnnc1C(c1cc2ccccc2o1)N1CCN(C/C=C/c2ccccc2)CC1 (stereo not given) 5.62 µM [inhibitor, partial curve, poor fit]
CC(C)CCNC(=O)[C@H](CSCc1ccccc1)N1Cc2ccccc2C1=O 11.2 µM [inhibitor, single point]
CCOC(=O)CSc1nc(Nc2ccc3c(c2)OCO3)c2ccccc2n1 28.2 µM [inhibitor, single point]
COC(=O)c1ccccc1NC(=O)Cc1nc(-c2ccccc2)sc1-c1ccc(C)cc1 28.2 µM [inhibitor, single point]
CC1(Cc2ccccc2F)C(=O)Nc2c(Cl)ccc(Cl)c21 (stereo not given) 11.2 µM [inhibitor, single point]
COC(=O)c1ccc(CSc2cc(C)c3ccccc3n2)o1 22.4 µM [inhibitor, partial curve, poor fit]
Cc1cc(C(=O)NC2CCCN(Cc3ccc(Cl)cc3)C2)n(C)n1 (stereo not given) 8.91 µM [inhibitor, partial curve, poor fit]
Cc1cc(CN2CCCC(CO)(Cc3cccc(Cl)c3)C2)n[nH]1 (stereo not given) 11.2 µM [inhibitor, partial curve, poor fit]
O=C(CSc1nnc(CNc2ccc(Cl)cc2)o1)Nc1nc2c(s1)CCCC2 28.2 µM [inhibitor, single point]
CCc1cc(C(=O)Nc2cc(S(=O)(=O)N3CCCCC3)ccc2N2CCN(C)CC2)sc1C 10 µM [inhibitor, partial curve, poor fit]
COc1cc(/C=N/Nc2cccc(C)c2)ccc1OC(=O)c1cccs1 7.08 µM [inhibitor, partial curve, poor fit]
CCN(c1cccc2ccccc12)S(=O)(=O)c1cccs1 12.6 µM [inhibitor, partial curve, poor fit]
COc1ccccc1CNC(=O)c1oc2ccc(S(=O)(=O)N3CCCCC3)cc2c1C 11.2 µM [inhibitor, partial curve, poor fit]
O=C(NCc1ccco1)c1cccc(-c2nnc(-c3ccccc3)o2)c1 3.98 µM [inhibitor, single point]
CC(C)(C)n1ncc2c(=O)n(Cc3ccc(Cl)cc3Cl)cnc21 11.2 µM [inhibitor, partial curve, poor fit]
Cc1c(Cl)c([N+](=O)[O-])nn1CCCC(=O)Nc1ccc(Cl)cc1Cl 22.4 µM [inhibitor, single point]
COc1ccc(OCC(=O)OCc2cc(=O)n3cc(C)sc3n2)cc1 12.6 µM [inhibitor, single point]
COc1cccc(CN2C(=O)C(C)N(C(=O)c3c(F)cccc3F)c3ccccc32)c1 (stereo not given) 11.2 µM [inhibitor, partial curve, poor fit]
CCOC(=O)c1sc2nc(CSc3ccccc3)nc(N3CCC(C(N)=O)CC3)c2c1C 14.1 µM [inhibitor, single point]
Cc1onc(-c2ccccc2)c1C(=O)OCC(=O)N1CCN(c2ccccc2)CC1 2.24 µM [inhibitor, partial curve, poor fit]
CC1(C(=O)NCCc2c[nH]c3ccccc23)CCN1CC1CCCCC1 (stereo not given) 12.6 µM [inhibitor, single point]
COc1ccc(C2CC(C(F)(F)F)n3nc(C(=O)Nc4ccc5c(c4)OCO5)cc3N2)cc1 (stereo not given) 7.08 µM [inhibitor, partial curve, poor fit]

Potency, active:
O=C(CC1C(=O)N(c2ccccc2)C(=O)N1CCC1=CCCCC1)Nc1ccc(F)cc1 (stereo not given) 10 µM

Activity change, negative = inhibition, inactive:
COc1ccc(C(=O)Nc2nc3ccccc3[nH]2)cc1OC 13.3%
CCc1nnc(NC(=O)c2ccc(OC)cc2)s1 17% [at 0.307 µM]
C[C@@H]1CN([C@@H](C)CO)C(=O)c2cc(Br)cnc2O[C@@H]1CN(C)S(C)(=O)=O 9.24%
CC1(C(=O)Nc2ccc3c(c2)OCO3)CCN1C(=O)Cc1cccs1 (stereo not given) 14.9%
CC(=O)C1=C(c2ccccc2)OC(N)=C(C#N)C1c1ccccc1C (stereo not given) -29.8%
CCOCCCN1C(=O)CN(C2CCCCCC2)C(=O)C1c1ccc(OC(C)C)c(OC)c1 (stereo not given) 10.3%
S=c1nc(NCCc2ccccc2Cl)c2ccccc2[nH]1 16.5%
